# Measurements published in the supplement of paper PMC8728848.
# Some of the results follow.
# B1: LFA (Limax flavus) (protein)
# chain: MSVLFLAASFLLLASFELVAAQGCPRQDPGDWIVIQRRLNADVNFYRGWADYKHGFGDLRCNFWLGNEKIHQLTSHGRYKLRVEFTFNNKSYFAEYSTFKILGEADKYKLQVGGYSGNAGDALTFHNGMAFSTNDRDNDADSIDCAKVYHGAWWYKTCHESNLNGKWGSKKYGEGLNWKAKTTFTATATSSLLKIKALK
# Experiments:
# Test in all cases: glycan array binding signal (z-score within array); higher = stronger binding
# Conditions in all cases: glycan notation: IUPAC condensed, linker removed
# [1] = target: Glc(b1-4)Glc
# Procedure, shortened: (§1)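 Glycan array data were curated from 3228 arrays in the Consortium for Functional Glycomics database and kept only where the protein sequence was available. Glycan names were converted to IUPAC-condensed notation, and columns mapping to the same glycan were averaged. The binding signal is a within-array Z-score, averaged across arrays of the same protein sequence at different concentrations or buffers and across linkers. Negative Z-scores can be read as non-binding.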
# [2] = target: Glc(b1-6)Glc
# Procedure, shortened: as §1
# [3] = target: GlcA(b1-3)Gal
# Procedure, shortened: as §1
# [4] = target: GlcA(b1-3)GlcNAc
# Procedure, shortened: as §1
# [5] = target: GlcA(b1-6)Gal
# Procedure, shortened: as §1
# [6] = target: GlcA3S(b1-3)Gal(b1-4)GlcNAc(b1-2)Man
# Procedure, shortened: as §1
# [7] = target: GlcA3S(b1-3)Gal(b1-4)GlcNAc(b1-3)Gal(b1-4)Glc
# Procedure, shortened: as §1
# [8] = target: GlcNAc(a1-3)Gal(b1-4)GlcNAc
# Procedure, shortened: as §1
# [9] = target: GlcNAc(a1-4)Gal(b1-3)GlcNAc
# Procedure, shortened: as §1
# [10] = target: GlcNAc(a1-4)Gal(b1-4)GalNAc
# Procedure, shortened: as §1
# [11] = target: GlcNAc(a1-4)Gal(b1-4)GlcNAc
# Procedure, shortened: as §1
# [12] = target: GlcNAc(a1-4)Gal(b1-4)GlcNAc(b1-3)Gal(b1-4)Glc
# Procedure, shortened: as §1
# [13] = target: GlcNAc(a1-4)Gal(b1-4)GlcNAc(b1-3)Gal(b1-4)GlcNAc
# Procedure, shortened: as §1
# [14] = target: GlcNAc(a1-4)Gal(b1-4)GlcNAc(b1-3)Gal(b1-4)GlcNAc(b1-3)Gal(b1-4)GlcNAc
# Procedure, shortened: as §1
# [15] = target: GlcNAc(a1-4)Gal(b1-4)GlcNAc(b1-3)Gal(b1-4)[Fuc(a1-3)]GlcNAc(b1-3)Gal(b1-4)[Fuc(a1-3)]GlcNAc
# Procedure, shortened: as §1
# [16] = target: GlcNAc(a1-6)Gal(b1-4)GlcNAc
# Procedure, shortened: as §1
# [17] = target: GlcNAc(b1-2)Gal(b1-3)GalNAc
# Procedure, shortened: as §1
# [18] = target: GlcNAc(b1-2)Man(a1-3)[GlcNAc(b1-2)Man(a1-6)]Man(b1-4)GlcNAc(b1-4)GlcNAc
# Procedure, shortened: as §1
# [19] = target: GlcNAc(b1-2)Man(a1-3)[GlcNAc(b1-2)Man(a1-6)]Man(b1-4)GlcNAc(b1-4)[Fuc(a1-6)]GlcNAc
# Procedure, shortened: as §1
# [20] = target: GlcNAc(b1-2)Man(a1-3)[GlcNAc(b1-4)][GlcNAc(b1-2)Man(a1-6)]Man(b1-4)GlcNAc(b1-4)GlcNAc
# Procedure, shortened: as §1
# [21] = target: GlcNAc(b1-2)Man(a1-3)[GlcNAc(b1-4)][GlcNAc(b1-2)Man(a1-6)]Man(b1-4)GlcNAc(b1-4)[Fuc(a1-6)]GlcNAc
# Procedure, shortened: as §1
# [22] = target: GlcNAc(b1-2)[GlcNAc(b1-4)]Man(a1-3)[GlcNAc(b1-2)Man(a1-6)]Man(b1-4)GlcNAc(b1-4)GlcNAc
# Procedure, shortened: as §1
# [23] = target: GlcNAc(b1-2)[GlcNAc(b1-4)]Man(a1-3)[GlcNAc(b1-4)][GlcNAc(b1-2)Man(a1-6)]Man(b1-4)GlcNAc(b1-4)GlcNAc
# Procedure, shortened: as §1
# [24] = target: GlcNAc(b1-2)[GlcNAc(b1-4)]Man(a1-3)[GlcNAc(b1-4)][GlcNAc(b1-2)[GlcNAc(b1-6)]Man(a1-6)]Man(b1-4)GlcNAc(b1-4)GlcNAc
# Procedure, shortened: as §1
# [25] = target: GlcNAc(b1-2)[GlcNAc(b1-4)]Man(a1-3)[GlcNAc(b1-4)][GlcNAc(b1-2)[GlcNAc(b1-6)]Man(a1-6)]Man(b1-4)GlcNAc(b1-4)[Fuc(a1-6)]GlcNAc
# Procedure, shortened: as §1
# [26] = target: GlcNAc(b1-2)[GlcNAc(b1-6)]Man(a1-6)[GlcNAc(b1-2)Man(a1-3)]Man(b1-4)GlcNAc(b1-4)GlcNAc
# Procedure, shortened: as §1
# [27] = target: GlcNAc(b1-2)[GlcNAc(b1-6)]Man(a1-6)[GlcNAc(b1-2)Man(a1-3)]Man(b1-4)GlcNAc(b1-4)[Fuc(a1-6)]GlcNAc
# Procedure, shortened: as §1
# [28] = target: GlcNAc(b1-2)[GlcNAc(b1-6)]Man(a1-6)[GlcNAc(b1-4)][GlcNAc(b1-2)Man(a1-3)]Man(b1-4)GlcNAc(b1-4)GlcNAc
# Procedure, shortened: as §1
# [29] = target: GlcNAc(b1-3)Fuc
# Procedure, shortened: as §1
# [30] = target: GlcNAc(b1-3)Gal
# Procedure, shortened: as §1
# [31] = target: GlcNAc(b1-3)Gal(b1-3)GalNAc
# Procedure, shortened: as §1
# [32] = target: GlcNAc(b1-3)Gal(b1-4)Glc
# Procedure, shortened: as §1
# [33] = target: GlcNAc(b1-3)Gal(b1-4)GlcNAc
# Procedure, shortened: as §1
# [34] = target: GlcNAc(b1-3)Gal(b1-4)GlcNAc(b1-2)Man(a1-3)[GlcNAc(b1-3)Gal(b1-4)GlcNAc(b1-2)Man(a1-6)]Man(b1-4)GlcNAc(b1-4)GlcNAc
# Procedure, shortened: as §1
# [35] = target: GlcNAc(b1-3)Gal(b1-4)GlcNAc(b1-2)Man(a1-3)[GlcNAc(b1-3)Gal(b1-4)GlcNAc(b1-2)Man(a1-6)]Man(b1-4)GlcNAc(b1-4)[Fuc(a1-6)]GlcNAc
# Procedure, shortened: as §1
# [36] = target: GlcNAc(b1-3)Gal(b1-4)GlcNAc(b1-2)[GlcNAc(b1-3)Gal(b1-4)GlcNAc(b1-6)]Man(a1-6)[GlcNAc(b1-3)Gal(b1-4)GlcNAc(b1-2)Man(a1-3)]Man(b1-4)GlcNAc(b1-4)GlcNAc
# Procedure, shortened: as §1
# [37] = target: GlcNAc(b1-3)Gal(b1-4)GlcNAc(b1-3)Gal(b1-4)GlcNAc
# Procedure, shortened: as §1
# [38] = target: GlcNAc(b1-3)Gal(b1-4)GlcNAc(b1-3)Gal(b1-4)GlcNAc(b1-2)Man(a1-3)[GlcNAc(b1-3)Gal(b1-4)GlcNAc(b1-3)Gal(b1-4)GlcNAc(b1-2)Man(a1-6)]Man(b1-4)GlcNAc(b1-4)GlcNAc
# Procedure, shortened: as §1
# [39] = target: GlcNAc(b1-3)Gal(b1-4)GlcNAc(b1-3)Gal(b1-4)GlcNAc(b1-2)Man(a1-3)[GlcNAc(b1-3)Gal(b1-4)GlcNAc(b1-3)Gal(b1-4)GlcNAc(b1-2)Man(a1-6)]Man(b1-4)GlcNAc(b1-4)[Fuc(a1-6)]GlcNAc
# Procedure, shortened: as §1
# [40] = target: GlcNAc(b1-3)Gal(b1-4)GlcNAc(b1-3)Gal(b1-4)GlcNAc(b1-2)[GlcNAc(b1-3)Gal(b1-4)GlcNAc(b1-3)Gal(b1-4)GlcNAc(b1-6)]Man(a1-6)[GlcNAc(b1-3)Gal(b1-4)GlcNAc(b1-3)Gal(b1-4)GlcNAc(b1-2)Man(a1-3)]Man(b1-4)GlcNAc(b1-4)[Fuc(a1-6)]GlcNAc
# Procedure, shortened: as §1
# [41] = target: GlcNAc(b1-3)Gal(b1-4)GlcNAc(b1-3)Gal(b1-4)GlcNAc(b1-3)Gal(b1-4)GlcNAc(b1-2)Man(a1-3)[GlcNAc(b1-3)Gal(b1-4)GlcNAc(b1-3)Gal(b1-4)GlcNAc(b1-3)Gal(b1-4)GlcNAc(b1-2)Man(a1-6)]Man(b1-4)GlcNAc(b1-4)GlcNAc
# Procedure, shortened: as §1
# [42] = target: GlcNAc(b1-3)Gal(b1-4)GlcNAc(b1-3)Gal(b1-4)GlcNAc(b1-3)Gal(b1-4)GlcNAc(b1-2)Man(a1-3)[GlcNAc(b1-3)Gal(b1-4)GlcNAc(b1-3)Gal(b1-4)GlcNAc(b1-3)Gal(b1-4)GlcNAc(b1-2)Man(a1-6)]Man(b1-4)GlcNAc(b1-4)[Fuc(a1-6)]GlcNAc
# Procedure, shortened: as §1
# [43] = target: GlcNAc(b1-3)Gal(b1-4)GlcNAc(b1-3)Gal(b1-4)GlcNAc(b1-3)Gal(b1-4)GlcNAc(b1-2)[GlcNAc(b1-3)Gal(b1-4)GlcNAc(b1-3)Gal(b1-4)GlcNAc(b1-3)Gal(b1-4)GlcNAc(b1-6)]Man(a1-6)[GlcNAc(b1-3)Gal(b1-4)GlcNAc(b1-3)Gal(b1-4)GlcNAc(b1-3)Gal(b1-4)GlcNAc(b1-2)Man(a1-3)]Man(b1-4)GlcNAc(b1-4)[Fuc(a1-6)]GlcNAc
# Procedure, shortened: as §1
# [44] = target: GlcNAc(b1-3)Gal(b1-4)GlcNAc(b1-3)Gal(b1-4)GlcNAc(b1-3)Gal(b1-4)GlcNAc(b1-3)Gal(b1-4)GlcNAc(b1-2)Man(a1-3)[GlcNAc(b1-3)Gal(b1-4)GlcNAc(b1-3)Gal(b1-4)GlcNAc(b1-3)Gal(b1-4)GlcNAc(b1-3)Gal(b1-4)GlcNAc(b1-2)Man(a1-6)]Man(b1-4)GlcNAc(b1-4)GlcNAc
# Procedure, shortened: as §1
# [45] = target: GlcNAc(b1-3)Gal(b1-4)GlcNAc(b1-3)Gal(b1-4)GlcNAc(b1-3)Gal(b1-4)GlcNAc(b1-3)Gal(b1-4)GlcNAc(b1-2)Man(a1-3)[GlcNAc(b1-3)Gal(b1-4)GlcNAc(b1-3)Gal(b1-4)GlcNAc(b1-3)Gal(b1-4)GlcNAc(b1-3)Gal(b1-4)GlcNAc(b1-2)Man(a1-6)]Man(b1-4)GlcNAc(b1-4)[Fuc(a1-6)]GlcNAc
# Procedure, shortened: as §1
binder,measurement,setting,value
B1,glycan array binding signal (z-score),[1],-0.259
same,glycan array binding signal (z-score),[2],-0.222
same,glycan array binding signal (z-score),[3],-0.143
same,glycan array binding signal (z-score),[4],-0.33
same,glycan array binding signal (z-score),[5],-0.172
same,glycan array binding signal (z-score),[6],-0.073
same,glycan array binding signal (z-score),[7],-0.199
same,glycan array binding signal (z-score),[8],-0.145
same,glycan array binding signal (z-score),[9],-0.253
same,glycan array binding signal (z-score),[10],-0.191
same,glycan array binding signal (z-score),[11],-0.049
same,glycan array binding signal (z-score),[12],-0.062
same,glycan array binding signal (z-score),[13],-0.086
same,glycan array binding signal (z-score),[14],-0.098
same,glycan array binding signal (z-score),[15],-0.075
same,glycan array binding signal (z-score),[16],-0.363
same,glycan array binding signal (z-score),[17],0.358
same,glycan array binding signal (z-score),[18],-0.239
same,glycan array binding signal (z-score),[19],-0.261
same,glycan array binding signal (z-score),[20],-0.317
same,glycan array binding signal (z-score),[21],-0.303
same,glycan array binding signal (z-score),[22],-0.301
same,glycan array binding signal (z-score),[23],-0.322
same,glycan array binding signal (z-score),[24],-0.213
same,glycan array binding signal (z-score),[25],0.243
same,glycan array binding signal (z-score),[26],-0.242
same,glycan array binding signal (z-score),[27],-0.347
same,glycan array binding signal (z-score),[28],-0.03
same,glycan array binding signal (z-score),[29],-0.355
same,glycan array binding signal (z-score),[30],-0.16
same,glycan array binding signal (z-score),[31],0.309
same,glycan array binding signal (z-score),[32],-0.284
same,glycan array binding signal (z-score),[33],-0.243
same,glycan array binding signal (z-score),[34],-0.217
same,glycan array binding signal (z-score),[35],-0.066
same,glycan array binding signal (z-score),[36],0.062
same,glycan array binding signal (z-score),[37],-0.289
same,glycan array binding signal (z-score),[38],1.96
same,glycan array binding signal (z-score),[39],0.015
same,glycan array binding signal (z-score),[40],0.76
same,glycan array binding signal (z-score),[41],0.458
same,glycan array binding signal (z-score),[42],0.314
same,glycan array binding signal (z-score),[43],1.25
same,glycan array binding signal (z-score),[44],0.512
same,glycan array binding signal (z-score),[45],0.07
